Assay results published in paper PMC7251123, “CX-5461 activates the DNA damage response and demonstrates therapeutic efficacy in high-grade serous ovarian cancer” (Nature Communications, 2020).
“And” between values parts separate entries of the source, which are not always exact repeats. Equal entries are not always repeated. The source gives many values for each of these; only a part stands here.

Tested on: Pol I transcription
Assay: Inhibition of Pol I transcription: 47S precursor rRNA levels by quantitative RT-PCR after 1 h treatment
Assay type: cell-based, human
Conditions: individual replicates
Experimental: Fig. 1 Sensitivity of ovarian cancer (OVCA) cell lines to CX-5461. a CX-5461 doses that induce 50% growth inhibition (GI50) at 48 hours. Error bars represent mean ± standard deviation (SD). Asterisks denote mutated TP53 status. […] Information regarding each cell lines source, mean G1_50 values, SD and N values are outlined in Supplementary Table 1. […] Statistical analysis was performed using a two-sided Mann–Whitney test. Error bars represent mean ± SD. c Baseline rDNA transcription rates of OVCA cell lines (listed in (d)), as determined by quantitative real-time PCR (qRT-PCR) analysis using primers specific to the external transcribed spacer 5’ETS (+413–521 bp) relative to the transcription start site (TSS). Expression levels in each cell line were normalised to Vimentin mRNA and expressed as fold change relative to TOV112D cells. Each dot represents the mean value of n = 3 biologically independent experiments per cell line (Individual data points are provided in Supplementary Data 4). Error bars represent mean ± SD. Statistical analysis was performed using a two-tailed unpaired t test. d Dose-response curves of 47S precursor rRNA levels measured by quantitative RT-PCR. OVCA cell lines were treated with vehicle or increasing drug concentrations of CX-5461 (0.001, 0.01, 0.03, 0.1, 0.3, 1 and 3 μM) for 1 h before RNA was harvested. Expression levels were normalised to Vimentin mRNA and expressed as fold change relative to vehicle-treated controls. Shown are the mean of n = 3 independent biological experiments for each cell line. (Individual data points are provided in Supplementary Data 4). e The mean inhibitory concentration values that led to 50% transcription inhibition (IC50) (of n = 3 biologically independent experiments for each cell line) from D are presented (Individual data points are provided in Supplementary Data 4). Error bars represent mean ± SD. Statistical analysis was performed using a two-sided Mann–Whitney test.
For Reverse-transcription qPCR analysis, cells were lysed, RNA extracted, and first-strand cDNA synthesized using random hexamer primers (Promega, C1181) and Superscript III (Invitrogen,18080044). Quantitative PCR (qPCR) was performed in duplicate using the FAST SYBR Green dye (Applied Biosystems, 4385610) on the StepOnePlus real-time PCR system (Applied Biosystems). Primer sequences are listed in (Supplementary Table 3).
Dose-response curves of 4 7S precursor rRNA levels (Figure 1D) measured by quantitative RT-PCR after 1h treatment. Expression levels
were normalised to Vimentin mRNA and expressed as fold change relative to vehicle-treated controls.
IC50 doses (Figure 1E) were determined from dose response curves in Figure 1D
using GraphPad Prism version 8.

Cc1cnc(CNC(=O)c2c(=O)c3ccc(N4CCCN(C)CC4)nc3n3c2sc2ccccc23)cn1 [CX-5461]
47S precursor rRNA level, fold change relative to vehicle-treated controls (Kuramochi, CX-5461 0.0000001 M): 0.4643 and 0.6229 and 0.6436
47S precursor rRNA level, fold change relative to vehicle-treated controls (Kuramochi, CX-5461 0.0000003 M): 0.203 and 0.3708 and 0.2892
47S precursor rRNA level, fold change relative to vehicle-treated controls (Kuramochi, CX-5461 0.000001 M): 0.1284 and 0.2771 and 0.273
47S precursor rRNA level, fold change relative to vehicle-treated controls (Kuramochi, CX-5461 0.000003 M): 0.1269 and 0.4904 and 0.2868
47S precursor rRNA level, fold change relative to vehicle-treated controls (Kuramochi, CX-5461 1E-09 M): 0.6891 and 1.454 and 1.172
47S precursor rRNA level, fold change relative to vehicle-treated controls (OV90, CX-5461 0.00000001 M): 1.369 and 2.91 and 2.34
47S precursor rRNA level, fold change relative to vehicle-treated controls (OV90, CX-5461 0.00000003 M): 1.406 and 3.108 and 3.035
47S precursor rRNA level, fold change relative to vehicle-treated controls (OV90, CX-5461 0.0000001 M): 0.9052 and 2.42 and 1.655
47S precursor rRNA level, fold change relative to vehicle-treated controls (OV90, CX-5461 0.0000003 M): 0.5867 and 0.7303 and 0.7716
47S precursor rRNA level, fold change relative to vehicle-treated controls (OV90, CX-5461 0.000001 M): 0.3213 and 0.81 and 0.7174
47S precursor rRNA level, fold change relative to vehicle-treated controls (OV90, CX-5461 0.000003 M): 0.3469 and 0.4984 and 0.6639
47S precursor rRNA level, fold change relative to vehicle-treated controls (OV90, CX-5461 1E-09 M): 3.225 and 2.768
47S precursor rRNA level, fold change relative to vehicle-treated controls (OVCAR3, CX-5461 0.00000001 M): 0.7439 and 0.6379 and 0.9279
47S precursor rRNA level, fold change relative to vehicle-treated controls (OVCAR3, CX-5461 0.00000003 M): 0.8636 and 0.7649 and 0.9345
47S precursor rRNA level, fold change relative to vehicle-treated controls (OVCAR3, CX-5461 0.0000001 M): 0.4021 and 0.347 and 0.6221
47S precursor rRNA level, fold change relative to vehicle-treated controls (OVCAR3, CX-5461 0.0000003 M): 0.3676 and 0.4664 and 0.3415
47S precursor rRNA level, fold change relative to vehicle-treated controls (OVCAR3, CX-5461 0.000001 M): 0.1746 and 0.1458 and 0.2499
47S precursor rRNA level, fold change relative to vehicle-treated controls (OVCAR3, CX-5461 0.000003 M): 0.1679 and 0.1179 and 0.2699
47S precursor rRNA level, fold change relative to vehicle-treated controls (OVCAR3, CX-5461 1E-09 M): 1.013 and 0.8328 and 1.023
47S precursor rRNA level, fold change relative to vehicle-treated controls (OVCAR4, CX-5461 0.00000001 M): 1.051 and 0.8553 and 0.8181
47S precursor rRNA level, fold change relative to vehicle-treated controls (OVCAR4, CX-5461 0.00000003 M): 1.218 and 0.953 and 1.234
47S precursor rRNA level, fold change relative to vehicle-treated controls (OVCAR4, CX-5461 0.0000001 M): 0.5426 and 0.5084 and 0.4691
47S precursor rRNA level, fold change relative to vehicle-treated controls (OVCAR4, CX-5461 0.0000003 M): 0.1516 and 0.1261 and 0.1408
47S precursor rRNA level, fold change relative to vehicle-treated controls (OVCAR4, CX-5461 0.000001 M): 0.1019 and 0.07958 and 0.07862
47S precursor rRNA level, fold change relative to vehicle-treated controls (OVCAR4, CX-5461 0.000003 M): 0.09734 and 0.07398 and 0.1166
47S precursor rRNA level, fold change relative to vehicle-treated controls (OVCAR4, CX-5461 1E-09 M): 0.8151 and 0.6926 and 0.9247
47S precursor rRNA level, fold change relative to vehicle-treated controls (OVCAR8, CX-5461 0.00000001 M): 1.156 and 0.9594 and 0.9199
47S precursor rRNA level, fold change relative to vehicle-treated controls (OVCAR8, CX-5461 0.00000003 M): 1 and 0.9185 and 0.8175
47S precursor rRNA level, fold change relative to vehicle-treated controls (OVCAR8, CX-5461 0.0000001 M): 0.5891 and 0.5889 and 0.5184
47S precursor rRNA level, fold change relative to vehicle-treated controls (OVCAR8, CX-5461 0.0000003 M): 0.3671 and 0.2018 and 0.2507
47S precursor rRNA level, fold change relative to vehicle-treated controls (OVCAR8, CX-5461 0.000001 M): 0.1509 and 0.1089 and 0.1175
47S precursor rRNA level, fold change relative to vehicle-treated controls (OVCAR8, CX-5461 0.000003 M): 0.09518 and 0.1073 and 0.12
47S precursor rRNA level, fold change relative to vehicle-treated controls (OVCAR8, CX-5461 1E-09 M): 1.162 and 0.9381 and 0.8876
47S precursor rRNA level, fold change relative to vehicle-treated controls (TOV112D, CX-5461 0.00000001 M): 2.075
47S precursor rRNA level, fold change relative to vehicle-treated controls (TOV112D, CX-5461 0.00000003 M): 0.9065 and 1.402
47S precursor rRNA level, fold change relative to vehicle-treated controls (TOV112D, CX-5461 0.0000001 M): 0.7201 and 1.013
47S precursor rRNA level, fold change relative to vehicle-treated controls (TOV112D, CX-5461 0.0000003 M): 0.2911
